According to the supplement of paper PMC7826260:
The other results are listed elsewhere or left out. Each Rep nickase domain was tested in vitro on the same pool of single strands for 1 h at 37 °C with 3 µM enzyme; only the middle of the 90-letter strands is printed. Numbers give uncut DNA relative to the enzyme-free pool, as log2; strong cutting gives strongly negative numbers. There is no active / inactive call. Shares of all reads are compared, so uncut sequences can rise above 0 when many others are cut.

System: T1, Rep nickase domain of tomato yellow leaf curl virus
T1 sequence (residues 1-136, tag not shown): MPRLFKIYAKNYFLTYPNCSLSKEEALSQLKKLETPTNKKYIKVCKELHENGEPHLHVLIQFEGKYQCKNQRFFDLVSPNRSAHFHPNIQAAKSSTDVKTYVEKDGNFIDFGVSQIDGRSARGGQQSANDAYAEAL
Assay: uncleaved DNA left, log2 of reads against the no-enzyme library (log2 ratio); higher = less cleavage (more negative = more Rep cleavage of the k-mer); sequences stand for … in CTCGTCCG…ACCGGAGA
Description: (§1)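 A pool of 90-nt single-stranded DNAs with seven random bases just before the constant AC of the nick site (name = the seven bases) was cut by 3 µM recombinant His6-SUMO-tagged Rep nickase domain (300 nM DNA, 50 mM HEPES pH 8.0, 50 mM NaCl, 1 mM MnCl2, 1 h, 37 °C, three replicates). Uncut DNA was amplified and sequenced.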

| Sequence | uncleaved DNA left (log2) |
| --- | --- |
| GTTTCTG | 0.0154 |
| ACGGCGT | -0.0729 |
| ATGAAGT | -0.00672 |
| GAAATTT | -0.0123 |
| GACTAAT | 0.123 |
| CAGACGG | -0.0607 |
| CGTCGTT | -0.106 |
| CCGTGCG | -0.157 |
| CACTCGC | 0.0113 |
| AGGGTCA | -0.0255 |
| ATGTCTC | -0.017 |
| CTAATTG | 0.0957 |
| GGTAGGT | 0.0504 |
| GTAGCAC | -0.0566 |
| GTTTGAT | 0.0601 |
| GCGCGCG | 0.0131 |
| CTAGGCA | -0.0106 |
| TTGGGTT | -0.117 |
| CACCCGT | -0.301 |
| ACTAAGG | 0.0958 |

| Sequence | uncleaved DNA left (log2) |
| --- | --- |
| CCAACAG | 0.0183 |
| TGATACG | -0.149 |
| TTCTCGC | -0.213 |
| TACCGCG | -0.0181 |
| GCGGCTT | -0.13 |
| CACAATC | 0.0849 |
| GATTTAG | 0.0174 |
| AACTTCC | -0.0584 |
| CATCACT | -0.0265 |
| TGTACAT | 0.124 |
| AGCTTGT | 0.0926 |
| CGCCGTC | 0.0515 |
| CGGCTTC | -0.0272 |
| ATAGCCC | -0.00293 |
| CCATGCT | -0.138 |
| CTACCAT | -0.0286 |
| AGGTTGG | -0.0728 |
| TCACGCA | -0.15 |
| ACGTGAG | 0.0713 |
| CGCCTCG | -0.061 |

System: T2, Rep nickase domain of wheat dwarf virus
T2 sequence (residues 1-137, tag not shown): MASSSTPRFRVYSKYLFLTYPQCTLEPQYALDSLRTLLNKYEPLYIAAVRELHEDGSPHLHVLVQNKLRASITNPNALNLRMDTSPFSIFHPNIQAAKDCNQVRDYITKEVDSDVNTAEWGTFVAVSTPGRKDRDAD
Assay: as above
Description: as §1

| Sequence | uncleaved DNA left (log2) |
| --- | --- |
| GTTTCTG | -0.00522 |
| ACGGCGT | -0.195 |
| ATGAAGT | 0.0195 |
| GAAATTT | -1.33 |
| GACTAAT | 0.21 |
| CAGACGG | 0.0629 |
| CGTCGTT | -0.156 |
| CCGTGCG | -0.146 |
| CACTCGC | -0.0348 |
| AGGGTCA | 0.0288 |
| ATGTCTC | -0.0447 |
| CTAATTG | -0.117 |
| GGTAGGT | 0.192 |
| GTAGCAC | -0.06 |
| GTTTGAT | 0.0989 |
| GCGCGCG | -0.067 |
| CTAGGCA | -0.0593 |
| TTGGGTT | -0.129 |
| CACCCGT | -0.236 |
| ACTAAGG | 0.148 |

| Sequence | uncleaved DNA left (log2) |
| --- | --- |
| CCAACAG | -0.105 |
| TGATACG | -0.187 |
| TTCTCGC | -0.128 |
| TACCGCG | -0.229 |
| GCGGCTT | -0.167 |
| CACAATC | 0.113 |
| GATTTAG | -0.0261 |
| AACTTCC | -0.0508 |
| CATCACT | -0.187 |
| TGTACAT | 0.24 |
| AGCTTGT | -0.019 |
| CGCCGTC | -0.0837 |
| CGGCTTC | -0.0364 |
| ATAGCCC | 0.0187 |
| CCATGCT | -0.0686 |
| CTACCAT | -0.0621 |
| AGGTTGG | -0.0557 |
| TCACGCA | -0.2 |
| ACGTGAG | -0.13 |
| CGCCTCG | 0.0251 |
